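96-well plates; 48 h exposure; 5 concentrations. Endpoints by linear interpolation between flanking doses. Not reached: highest tested concentration assigned. Abbreviation: GI50, concentration required for 50% inhibition of growth. TGI denotes the concentration required for complete inhibition of growth.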
System: NCI-H322M lung
Assay: NCI tumour cell line growth inhibition, 48 h

Q: For `CSc1ccc(/C(=N/N=C(N)N)c2ccccc2)cc1`, which GI50 is on record?
A: The GI50 was 722 nM.

Q: What about the TGI of the same molecule?
A: Its TGI is 18800 nM.

Q: Which results are given for `CC(Nc1c(C#N)cnc2ccc(-c3cncc(-c4n[nH]c(=O)o4)c3)cc12)c1ccccc1` (centres undefined)?
A: GI50: 2920 nM; TGI: > 100000 nM

— PubChem BioAssay (NCI)
